The other results are listed elsewhere or left out.
Key:
HSkMC = human skeletal muscle cells; assay: cytotoxicity call (relative viability < 0.9); conditions: 10 µM
HepG2 = assay: cytotoxicity call (relative viability < 0.9); conditions: 10 µM
S. aureus RN4220 = assay: growth inhibition call (relative growth <= 0.2); conditions: 50 µM

## CC(C)CC#Cc1ccc2c(c1)O[C@@H](CN(C)C(=O)c1ccncc1)[C@H](C)CN([C@@H](C)CO)S2(=O)=O
HSkMC
  cytotoxicity call: inactive
HepG2
  cytotoxicity call: inactive
S. aureus RN4220
  growth inhibition call: inactive

## COc1ccc2c3c([nH]c2c1)[C@H](CO)N(C[C@]13CCN(CCc2ccccc2)CC1)C(=O)CN1CCOCC1
HSkMC
  cytotoxicity call: inactive
HepG2
  cytotoxicity call: inactive
S. aureus RN4220
  growth inhibition call: inactive

## CC(C)(C)CC(C)(C)c1ccc(O)c(Cc2ccc(Cl)cc2Cl)c1
HSkMC
  cytotoxicity call: active
HepG2
  cytotoxicity call: active
S. aureus RN4220
  growth inhibition call: inactive

## Cn1c(=O)c2c(nc(NCCN)n2Cc2ccc(Cl)cc2)n(C)c1=O
HSkMC
  cytotoxicity call: inactive
HepG2
  cytotoxicity call: inactive
S. aureus RN4220
  growth inhibition call: inactive

## COc1ccsc1C(N)=O
HSkMC
  cytotoxicity call: inactive
HepG2
  cytotoxicity call: inactive
S. aureus RN4220
  growth inhibition call: inactive

## CNC(=O)C[C@@H]1CC[C@H]2[C@@H](COC[C@H](O)CN2C(=O)Nc2ccc3c(c2)OCO3)O1
HSkMC
  cytotoxicity call: inactive
HepG2
  cytotoxicity call: inactive
S. aureus RN4220
  growth inhibition call: inactive

## C[C@H]1COc2c(C3(N)CC3)c(F)cc3c(=O)c(C(=O)O)cn1c23
HSkMC
  cytotoxicity call: inactive
HepG2
  cytotoxicity call: inactive
S. aureus RN4220
  growth inhibition call: active

## C=CC[N+]1(C2CC3C4CCC5CC(O)C(N6CCOCC6)CC5(C)C4CCC3(C)C2OC(C)=O)CCCC1.[Br-] (centres undefined)
HSkMC
  cytotoxicity call: inactive
HepG2
  cytotoxicity call: inactive
S. aureus RN4220
  growth inhibition call: inactive
